The source of these data is article PMC3827131.

Protein sequences, listed by entry. Tags and fused reporters are not part of them. Lines headed by an entry give the natural chain unless they say otherwise; changes in a name come on top.
UniProt Q9YGP5: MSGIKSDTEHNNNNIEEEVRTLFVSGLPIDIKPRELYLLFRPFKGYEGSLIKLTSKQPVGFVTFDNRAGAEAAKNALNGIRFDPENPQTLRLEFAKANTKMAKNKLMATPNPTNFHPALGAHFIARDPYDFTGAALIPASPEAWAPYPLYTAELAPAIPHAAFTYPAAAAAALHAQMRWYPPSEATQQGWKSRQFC

Experiment [1] deals with Hermes b (Hermes ORF, two-hybrid fusion) (Xenopus laevis) (UniProt Q9YGP5). Kind of experiment: two-hybrid; screen of a randomly primed X. laevis oocyte cDNA library in pVP16 (prey) with LexA-Hermes b (pBTM116) as bait, yeast strain L40; selection on medium lacking Leu, Trp, His with 15 mM 3-aminotriazole, beta-galactosidase filter assay.
Experiment [2] concerns the target T1, Rbm24b two-hybrid clone, residues 93-219 (Xenopus laevis) (UniProt Q9I8B3).
T1 sequence: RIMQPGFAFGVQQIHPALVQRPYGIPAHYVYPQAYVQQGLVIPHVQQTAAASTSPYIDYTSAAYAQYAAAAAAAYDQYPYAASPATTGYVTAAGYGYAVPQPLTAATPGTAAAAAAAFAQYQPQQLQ
Kind of experiment: two-hybrid; reverse test: selected inserts in the LexA bait plasmid pBTM116 against the Hermes ORF in the pVP16 prey vector, yeast strain L40; selective media and beta-galactosidase reporter assays. For orientation: Reporter assays use an easily measured gene product as a stand-in for the process of interest.

Experiment [3] deals with VN-POC1B / VC-POC1B (BiFC fusion of Xenopus Poc1B) (Xenopus) (UniProt Q4V7Z1). Description: split reporter; BiFC with Venus fragments VN and VC fused to the N-terminus of the ORFs; mRNAs injected into stage VI Xenopus oocytes, 48 h in OCM; confocal microscopy of the vegetal cortex at constant gain, and of hand-sectioned fixed oocytes.
Experiment [4] has as its target VN-Rbm24b / VC-Rbm24b (BiFC fusion of Rbm24b) (Xenopus laevis) (UniProt Q9I8B3). The experiment is described as above.

These are yes or no findings as the source states them, for the method shown. For some of these results: In cells and extracts the contact can be indirect. Some binding calls cover weakened binding; strength is not graded here. For some of these results: Tags and fused reporters may be left off the sequences shown.

On to “Hermes b, two-hybrid clone (residues 1-111) (from UniProt Q9YGP5 1-111) (domain or fragment)”, for which the binding entry in experiment [1] is “binds”.
Same read-out and setting: with “Hermes b, two-hybrid clone (residues 7-115) (from UniProt Q9YGP5 7-115) (domain or fragment)” the entry was “binds”.
Same read-out and setting: then “Hermes b, two-hybrid clone (residues 7-148) (from UniProt Q9YGP5 7-148) (domain or fragment)”, with “binds”.
Turning to “Hermes b (Hermes ORF, two-hybrid fusion) (from UniProt Q9YGP5 1-196)”, in experiment [2], the binding result is “binds”.

B1: VN-POC1B / VC-POC1B (BiFC fusion of Xenopus Poc1B) (protein, UniProt Q4V7Z1 1-468)
chain: MASALDDPALQRHFKGHKDAVTCVDFSPDSKQLASSSADACVMIWNFKPQSRAYKYPGHKEAVTCVQFSPSGHLVASSSKDRTVRLWAPNIKGESTVLKAHTAVVRCVNFSSDGQTFITASDDKSIKAWNLHRQRFLFSLTQHTNWVRCARFSPDGRLIASCSDDKTVRIWDLTNRLCINTFVDYKGHSNYVDFNQMGTCVASAGADSTVKVWDIRMNKLLQHYQVHNAGVSSLSFHPSGNYLLTASSDGTLKILDLLEGRLIYTLHGHQGPVLSVTFSKSGDQFASGATDAQVLVWKTNFDKYSVKEIVKLQQKRTCPEAPPHLNDIYPRTPHLHSSSGHSIEINPMCEVADTQTFDPPIINVGANLPYCRRTKAVHTLNKHVRNDNYPTPPVAFSYTEGQKEHPLVEEQGVLPPSLSNTLEQIVDQLNVLTQTVSILEHRLTLTEDKLKECLENQQKTSAHASESD
Take B1: in experiment [3], the binding result is “no binding”.

B2: VN-Rbm24b / VC-Rbm24b (BiFC fusion of Rbm24b) (protein, UniProt Q9I8B3 1-224)
chain: MHTTQKDTTYTKIFVGGLPYHTTDSSLRKYFEVFGDIEEAVVITDRQTGKSRGYGFVTMADRAAAERACKDPNPIIDGRKANVNLAYLGAKPRIMQPGFAFGVQQIHPALVQRPYGIPAHYVYPQAYVQQGLVIPHVQQTAAASTSPYIDYTSAAYAQYAAAAAAAYDQYPYAASPATTGYVTAAGYGYAVPQPLTAATPGTAAAAAAAFAQYQPQQLQADRMQ
In the case of B2, in experiment [4], the binding result is “binds”.

B3: Rbm24b two-hybrid clone, residues 93-219 (domain or fragment, UniProt Q9I8B3 93-219)
chain: RIMQPGFAFGVQQIHPALVQRPYGIPAHYVYPQAYVQQGLVIPHVQQTAAASTSPYIDYTSAAYAQYAAAAAAAYDQYPYAASPATTGYVTAAGYGYAVPQPLTAATPGTAAAAAAAFAQYQPQQLQ
Regarding B3, the binding entry in experiment [1] was “binds”.
